{
  "source": "the supplement of paper PMC8728848",
  "binders": {"B1": {"name": "AAA (Anguilla anguilla), Q7SIC1 (protein)", "chain": "VIPEGYTQENVAVRGKATQSAQLRGEHAANSEASNAIDGNRDSNFYHGSCTHSSGQANPWWRVDLLQVYTITSVTITNRGDCCGERISGAEINIGQHLASNGVNNPECSVIGSMATGETKTFHCPAPMIGRYVVTYLPTSESLHLCEVEVNVDKPAAA"}},
  "test_in_all_cases": "glycan array binding signal (z-score within array); higher = stronger binding",
  "conditions_in_all_cases": "glycan notation: IUPAC condensed, linker removed",
  "key": {"[1]": {"biological_target": "GlcA3S(b1-3)Gal(b1-4)GlcNAc(b1-3)Gal(b1-4)Glc", "outline": "(§1)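 The binding signal is a Z-score computed within each array. Data were drawn from 3228 arrays in the Consortium for Functional Glycomics database, restricted to those with a known protein sequence. Scores were averaged over arrays of the same protein sequence at different concentrations or buffers, and over linkers, and negative values can be taken as non-binding.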"}, "[2]": {"biological_target": "GlcNAc(a1-3)Gal(b1-4)GlcNAc", "outline": "as §1"}, "[3]": {"biological_target": "GlcNAc(a1-4)Gal(b1-3)GlcNAc", "outline": "as §1"}, "[4]": {"biological_target": "GlcNAc(a1-4)Gal(b1-4)GalNAc", "outline": "as §1"}, "[5]": {"biological_target": "GlcNAc(a1-4)Gal(b1-4)GlcNAc", "outline": "as §1"}, "[6]": {"biological_target": "GlcNAc(a1-4)Gal(b1-4)GlcNAc(b1-3)Gal(b1-4)Glc", "outline": "as §1"}, "[7]": {"biological_target": "GlcNAc(a1-4)Gal(b1-4)GlcNAc(b1-3)Gal(b1-4)GlcNAc", "outline": "as §1"}, "[8]": {"biological_target": "GlcNAc(a1-4)Gal(b1-4)GlcNAc(b1-3)Gal(b1-4)GlcNAc(b1-3)Gal(b1-4)GlcNAc", "outline": "as §1"}, "[9]": {"biological_target": "GlcNAc(a1-4)Gal(b1-4)GlcNAc(b1-3)Gal(b1-4)[Fuc(a1-3)]GlcNAc(b1-3)Gal(b1-4)[Fuc(a1-3)]GlcNAc", "outline": "as §1"}, "[10]": {"biological_target": "GlcNAc(a1-6)Gal(b1-4)GlcNAc", "outline": "as §1"}, "[11]": {"biological_target": "GlcNAc(b1-2)Gal(b1-3)GalNAc", "outline": "as §1"}, "[12]": {"biological_target": "GlcNAc(b1-2)Gal(b1-3)GlcNAc", "outline": "as §1"}, "[13]": {"biological_target": "GlcNAc(b1-2)Man(a1-3)[GlcNAc(b1-2)Man(a1-6)]Man(b1-4)GlcNAc(b1-4)GlcNAc", "outline": "as §1"}, "[14]": {"biological_target": "GlcNAc(b1-2)Man(a1-3)[GlcNAc(b1-2)Man(a1-6)]Man(b1-4)GlcNAc(b1-4)[Fuc(a1-6)]GlcNAc", "outline": "as §1"}, "[15]": {"biological_target": "GlcNAc(b1-2)Man(a1-3)[GlcNAc(b1-4)][GlcNAc(b1-2)Man(a1-6)]Man(b1-4)GlcNAc(b1-4)GlcNAc", "outline": "as §1"}, "[16]": {"biological_target": "GlcNAc(b1-2)Man(a1-3)[GlcNAc(b1-4)][GlcNAc(b1-2)Man(a1-6)]Man(b1-4)GlcNAc(b1-4)[Fuc(a1-6)]GlcNAc", "outline": "as §1"}, "[17]": {"biological_target": "GlcNAc(b1-2)[GlcNAc(b1-4)]Man(a1-3)[GlcNAc(b1-2)Man(a1-6)]Man(b1-4)GlcNAc(b1-4)GlcNAc", "outline": "as §1"}, "[18]": {"biological_target": "GlcNAc(b1-2)[GlcNAc(b1-4)]Man(a1-3)[GlcNAc(b1-4)][GlcNAc(b1-2)Man(a1-6)]Man(b1-4)GlcNAc(b1-4)GlcNAc", "outline": "as §1"}, "[19]": {"biological_target": "GlcNAc(b1-2)[GlcNAc(b1-4)]Man(a1-3)[GlcNAc(b1-4)][GlcNAc(b1-2)[GlcNAc(b1-6)]Man(a1-6)]Man(b1-4)GlcNAc(b1-4)GlcNAc", "outline": "as §1"}, "[20]": {"biological_target": "GlcNAc(b1-2)[GlcNAc(b1-4)]Man(a1-3)[GlcNAc(b1-4)][GlcNAc(b1-2)[GlcNAc(b1-6)]Man(a1-6)]Man(b1-4)GlcNAc(b1-4)[Fuc(a1-6)]GlcNAc", "outline": "as §1"}, "[21]": {"biological_target": "GlcNAc(b1-2)[GlcNAc(b1-6)]Man(a1-6)[GlcNAc(b1-2)Man(a1-3)]Man(b1-4)GlcNAc(b1-4)GlcNAc", "outline": "as §1"}, "[22]": {"biological_target": "GlcNAc(b1-2)[GlcNAc(b1-6)]Man(a1-6)[GlcNAc(b1-2)Man(a1-3)]Man(b1-4)GlcNAc(b1-4)[Fuc(a1-6)]GlcNAc", "outline": "as §1"}},
  "note": "The list shows a part of the results.",
  "data": [
    {"binder": "B1", "values": [
      {"measurement": "glycan array binding signal (z-score)", "setting": "[1]", "result": -0.136},
      {"measurement": "glycan array binding signal (z-score)", "setting": "[2]", "result": 1.4},
      {"measurement": "glycan array binding signal (z-score)", "setting": "[3]", "result": -0.011},
      {"measurement": "glycan array binding signal (z-score)", "setting": "[4]", "result": 0.012},
      {"measurement": "glycan array binding signal (z-score)", "setting": "[5]", "result": 2.3},
      {"measurement": "glycan array binding signal (z-score)", "setting": "[6]", "result": 1.66},
      {"measurement": "glycan array binding signal (z-score)", "setting": "[7]", "result": 1.96},
      {"measurement": "glycan array binding signal (z-score)", "setting": "[8]", "result": 2.29},
      {"measurement": "glycan array binding signal (z-score)", "setting": "[9]", "result": 0.711},
      {"measurement": "glycan array binding signal (z-score)", "setting": "[10]", "result": -0.279},
      {"measurement": "glycan array binding signal (z-score)", "setting": "[11]", "result": -0.181},
      {"measurement": "glycan array binding signal (z-score)", "setting": "[12]", "result": -0.295},
      {"measurement": "glycan array binding signal (z-score)", "setting": "[13]", "result": -0.274},
      {"measurement": "glycan array binding signal (z-score)", "setting": "[14]", "result": -0.058},
      {"measurement": "glycan array binding signal (z-score)", "setting": "[15]", "result": 0.635},
      {"measurement": "glycan array binding signal (z-score)", "setting": "[16]", "result": 0.36},
      {"measurement": "glycan array binding signal (z-score)", "setting": "[17]", "result": -0.166},
      {"measurement": "glycan array binding signal (z-score)", "setting": "[18]", "result": -0.121},
      {"measurement": "glycan array binding signal (z-score)", "setting": "[19]", "result": -0.282},
      {"measurement": "glycan array binding signal (z-score)", "setting": "[20]", "result": -0.16},
      {"measurement": "glycan array binding signal (z-score)", "setting": "[21]", "result": -0.226},
      {"measurement": "glycan array binding signal (z-score)", "setting": "[22]", "result": -0.162}
    ]}
  ]
}
